Experimental data as given in the supplement of paper PMC5655136.
Read counts after selection give these values, which scatter widely.
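Note: shRNA barcodes quantified by deep sequencing of PCR amplicons from cellular DNA, counts expressed as percent of each subpool, ratio averaged over two biological duplicates.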

Each sequence was assayed on NB7 (assay: fold depletion of shRNA, plasmid library share / infected cells without Dox share (9 days) (ratio); higher = more depleted after infection (more toxic, leaky expression from a Tet-inducible vector; NB7 is a neuroblastoma line without caspase-8)). Settings: shRNA pool: CD95L ORF + CD95L 3'UTR + Venus libraries.
For GCTGCCCGACAACCACTACCT, the “fold depletion of shRNA” value was 0.711.
For CGCCCTGAGCAAAGACCCCAA, the “fold depletion of shRNA” value was 1.86.
TGGCAGAACTCCGAGAGTCTA was tested, and the “fold depletion of shRNA” value was 3.58.
With CTACCTGGGGGCAGTGTTCAA the “fold depletion of shRNA” value was 1.06.
In the case of AGGCCAACTTCAAGATCCGCC, the “fold depletion of shRNA” value is reported as 2.08.
GAGCTACTGCACTACTGGGCA was tested, and the “fold depletion of shRNA” value was 2.55.
In the case of ATTTTGAGGAATCTCAGACGT, the “fold depletion of shRNA” value is reported as 2.34.
In the case of ATCGGTGAAACTAACAGATAA, the “fold depletion of shRNA” value is reported as 0.712.
In the case of GTAGGGGTGTGTGTGTGTGTG, the “fold depletion of shRNA” value is reported as 0.756.
AGTGTTCAATCTTACCAGTGC was tested, and the “fold depletion of shRNA” value was 3.09.
For GCACCGAGAATGTTGTATTCA, the “fold depletion of shRNA” value was 0.911.
In the case of GGGCTGTACTTTGTATATTCC, the “fold depletion of shRNA” value is reported as 1.15.
In the case of CCATTATGATTCTTTGTTACA, the “fold depletion of shRNA” value is reported as 1.54.
GCAGCTCGCCGACCACTACCA was tested, and the “fold depletion of shRNA” value was 0.15.
CCCCATCGGCGACGGCCCCGT was tested, and the “fold depletion of shRNA” value was 1.05.
In the case of GATGTTTTTCATGGTTCTGGT, the “fold depletion of shRNA” value is reported as 2.96.
With GAACCAAGTGGACCTTGAGAC the “fold depletion of shRNA” value was 1.19.
With ACCACCCTGGGCTACGGCCTG the “fold depletion of shRNA” value was 2.2.
TGGTGATGATGGAGGGGAAGA was tested, and the “fold depletion of shRNA” value was 1.22.
For ATAAATATTTATGTAGATGTG, the “fold depletion of shRNA” value was 1.42.
TTGAGGAATCTCAGACGTTTT was tested, and the “fold depletion of shRNA” value was 4.01.
CCATGCCTCTGGAATGGGAAG was tested, and the “fold depletion of shRNA” value was 2.25.
With GGCCAATGCCCCACTGGCAGC the “fold depletion of shRNA” value was 0.873.
In the case of CTCCAGGCACAGTTCTTCCCT, the “fold depletion of shRNA” value is reported as 1.52.
For ACCGCCGCCGGGATCACTCTC, the “fold depletion of shRNA” value was 1.37.
GAAAAAAAGGAGCTGAGGAAA was tested, and the “fold depletion of shRNA” value was 0.675.
With AACTCACCTCTCAAGGTGGGC the “fold depletion of shRNA” value was 1.69.
For CCTCGTGACCACCCTGGGCTA, the “fold depletion of shRNA” value was 1.81.
In the case of CTCCTTGTGATGTTTTTCATG, the “fold depletion of shRNA” value is reported as 0.998.
In the case of CGGCAACATCCTGGGGCACAA, the “fold depletion of shRNA” value is reported as 1.22.
For GCCACAACATCGAGGACGGCG, the “fold depletion of shRNA” value was 1.09.
CACCGCCACCGCCACCACTAC was tested, and the “fold depletion of shRNA” value was 0.471.
With TCTCGGCATGGACGAGCTGTA the “fold depletion of shRNA” value was 1.8.
TGGCCCATTTAACAGGCAAGT was tested, and the “fold depletion of shRNA” value was 0.831.
For AAGATTTTGAATGCTTCCTGA, the “fold depletion of shRNA” value was 1.83.
With TCTGGTCAATTTTGAGGAATC the “fold depletion of shRNA” value was 1.07.
In the case of CTCAACTCACCTAATGTTTAT, the “fold depletion of shRNA” value is reported as 0.902.
GTGAAGAGGGAGAAGCATGAA was tested, and the “fold depletion of shRNA” value was 4.35.
With TCAAGATCCGCCACAACATCG the “fold depletion of shRNA” value was 3.18.
In the case of ATAAGCTAAAGAGGCTGAAAG, the “fold depletion of shRNA” value is reported as 3.38.
With CGTGCAGCTCGCCGACCACTA the “fold depletion of shRNA” value was 0.738.
In the case of CTGAGAGTATTTAGGCAGATT, the “fold depletion of shRNA” value is reported as 1.85.
With AAGGAGCTGAGGAAAGTGGCC the “fold depletion of shRNA” value was 8.04.
In the case of AATGCCCCACTGGCAGCATCT, the “fold depletion of shRNA” value is reported as 0.74.
For ATGACTAAAGAGAGAATGTAG, the “fold depletion of shRNA” value was 0.798.
For GGGCGAGGGCGATGCCACCTA, the “fold depletion of shRNA” value was 1.69.
TATCCCCAGATCTACTGGGTG was tested, and the “fold depletion of shRNA” value was 1.65.
In the case of CCCTGGCCCACCCTCGTGACC, the “fold depletion of shRNA” value is reported as 0.938.
With CCGAAGGCTACGTCCAGGAGC the “fold depletion of shRNA” value was 0.975.
For ATCTTCTTCAAGGACGACGGC, the “fold depletion of shRNA” value was 2.01.
AGAAGGCCTGGTCAAAGGAGG was tested, and the “fold depletion of shRNA” value was 1.79.
In the case of GAAGCAAATAGGCCACCCCAG, the “fold depletion of shRNA” value is reported as 0.968.
AGCACTTTGGGATTCTTTCCA was tested, and the “fold depletion of shRNA” value was 17.8.
In the case of CTGGCCCACCCTCGTGACCAC, the “fold depletion of shRNA” value is reported as 0.87.
AGCTACTAATGATGTTTTCCT was tested, and the “fold depletion of shRNA” value was 1.98.
For CAGCGTGTCCGGCGAGGGCGA, the “fold depletion of shRNA” value was 0.216.
In the case of TCCTGCTGGAGTTCGTGACCG, the “fold depletion of shRNA” value is reported as 0.818.
In the case of TTCTTACATGCATTTGAGGTC, the “fold depletion of shRNA” value is reported as 1.83.
In the case of CCCAACGAGAAGCGCGATCAC, the “fold depletion of shRNA” value is reported as 2.9.
CACTTTGGGATTCTTTCCATT was tested, and the “fold depletion of shRNA” value was 1.06.
For GTTTTCCTATAATATAATAAA, the “fold depletion of shRNA” value was 1.02.

Same assay, conditions: shRNA pool: CD95 ORF + CD95 3'UTR + Venus libraries
For GCTGCCCGACAACCACTACCT, the “fold depletion of shRNA” value was 0.988.
CGCCCTGAGCAAAGACCCCAA was tested, and the “fold depletion of shRNA” value was 1.13.
With TGGCAGCTTATACATAGCAAT the “fold depletion of shRNA” value was 7.58.
With TGTAAACTGTGAAGATAGTTA the “fold depletion of shRNA” value was 1.3.
For CAATTAGTGTTTGAAAAGATT, the “fold depletion of shRNA” value was 0.785.
CTGAAGAGCCAACATATTTGT was tested, and the “fold depletion of shRNA” value was 1.9.
With GCTTTGTCTTCTTCTTTTGCC the “fold depletion of shRNA” value was 1.95.
For ACTATTGCTGGAGTCATGACA, the “fold depletion of shRNA” value was 2.2.
In the case of ATAGGAGTGTATGCAGAGGAT, the “fold depletion of shRNA” value is reported as 1.23.
